# Test results: the RNAGym collection of RNA variant scans (doi:10.1093/nar/gkz1192)
# The source gives no read counts; variants with many changes may rest on few reads.
# B1: CPEB3 Ribozyme (parent)
# chain: UAACAGGGGGCCACAGCAGAAGCGUUCACGUCGCAGCCCCUGUCAGAUUCUGGUGAAUCUGCGAAUUCUGCUGUAUAUCUC
# Variants of: B1
# Test: self-cleavage, relative activity (ratio to wild type); higher = more cleavage; in vitro, sequencing
# How it was run: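 Libraries of CPEB3 self-cleaving ribozyme mutants came from rounds of error-prone PCR and carried barcodes, which DNA sequencing matched to variants. In vitro transcription used T7 RNA polymerase at 37°C for 5 hours, with a further 15 min in DNase I before EDTA stopped the reaction; the ribozymes cleaved during both steps. The RNA was reverse transcribed with template switching and sequenced on Illumina. Relative activity is the cleaved/total read fraction of a variant divided by that of the unmutated ribozyme, averaged over three batches with at least 5 reads.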
row,Variant,self-cleavage
1,UAACAGGGGGCCACAGCAGAAGCGUUCACGUCGCAGCCCCUGACAGAUUCUGGUGAAUCUGCGGAUUCAGCUGUAUAUCUC,0.36
2,UAACAGGGGGCCACAGCAGAAGCGUUCACGUCGCAGCCCCUGACAGAUUCUGGUGAAUCUGAGAGUUCUGCUGUAUAUCAC,0.2
3,UAACAGGGGGCCACAGCAGAAGCGUUCACGUCGCAGCCCCUGACAUAUUCUGGCGAAUCUGCGAAUUCUGCUGUAUAUCUC,0.55
4,UAACAGGGGGCCACAGCAGAAGCGUUCACGUCGCAGCCCCUGACAGAAUAUGGUGAAUCUGCGAAUUCUGCUGUAUAUCUC,0.37
5,UAACAGGGGGCCACAGCAGAAGCGUUCACGUCGCAGCCCCUGACAGACUCUGGUGAAUCUGCGACUUCUGCCGUAUAUCUC,0.08
6,UAACAGGGGGCCACAGCAGAAGCGUUCACGUCGCAGCCCCUGACAGACUCUGGGGAAUCUGCGAAUUCUGCUGUAUAUCUC,0.38
7,UAACAGGGGGCCACAGCAGAAGCGUUCACGUCGCAGCCCCUGACAGAUCCUGGUGGAUCUGCGAGUUCUGCUGUAUAUCUC,0.64
8,UAACAGGGGGCCACAGCAGAAGCGUUCACGUCGCAGCCCCUGACAGAUCCUGGUGUAUCAGUGGAUUCUGCUGUAUAUCUC,0.15
9,UAACAGGGGGCCACAGCAGAAGCGUUCACGUCGCAGCCCCUGACAGAUCCUGGUGAAUCUGCGAAUUCCGCUGUAUAUCUC,0.19
10,UAACAGGGGGCCACAGCAGAAGCGUUCACGUCGCAGCCCCUGACAGAUUCAGGUGAAUCUGCGAUUUCUGCAGUAUAUCUC,0.49
11,UAACAGGGGGCCACAGCAGAAGCGUUCACGUCGCAGCCCCUGACAGAUUCCGGUGGAUCUGCGAAUUCUGCCGCAUAUCUC,0.9
12,UAACAGGGGGCCACAGCAGAAGCGUUCACGUCGCAGCCCCUGACAGAUUCCGGUGAAUCUGCGAUUUCUGCUGUAUAUCCC,0.62
13,UAACAGGGGGCCACAGCAGAAGCGUUCACGUCGCAGCCCCUGACAGAUUCUGGCGAAUCCGCGAACUCUGCUGUAUAUCUC,0.23
14,UAACAGGGGGCCACAGCAGAAGCGUUCACGUCGCAGCCCCUGACAGAUUCUGGCGAAUCUGCGAACUCUGCUGUAUAUCUC,0.2
15,UAACAGGGGGCCACAGCAGAAGCGUUCACGUCGCAGCCCCUGACAGAUUCUGGGGAAUCCGCGAAUUCUGCUGAAUAUCUC,0.53
16,UAACAGGGGGCCACAGCAGAAGCGUUCACGUCGCAGCCCCUGACAGAUUCUGGUGAAUCAGCGAAUUCUGCCGUAUAUCCC,0.62
17,UAACAGGGGGCCACAGCAGAAGCGUUCACGUCGCAGCCCCUGACAGAUUCUGGUGAAUCCGCGAAUUCUGCUGUAUGUCUC,0.72

row,Variant,self-cleavage
1,UAACAGGGGGCCACAGCAGAAGCGUUCACGUCGCAGCCCCUGACAGAUUCUGGUGAAUCCCCGAAUUCUGCGGUAUAUCUC,0.25
2,UAACAGGGGGCCACAGCAGAAGCGUUCACGUCGCAGCCCCUGACAGAUUCUGGUGAAUCCGCGAACUCUGCUGUAUACGUC,0.25
3,UAACAGGGGGCCACAGCAGAAGCGUUCACGUCGCAGCCCCUGACAGAUUCUGGUGAAUCCGCGAAUUCCGCUGUAUAUCCC,0.35
4,UAACAGGGGGCCACAGCAGAAGCGUUCACGUCGCAGCCCCUGACAGAUUCUGGUGAAUCUGCGAACUUUGCUGUAUAUCUC,0.37
5,UAACAGGGGGCCACAGCAGAAGCGUUCACGUCGCAGCCCCUGACAGAUUCUGGUGAAUCUGCGAAUCCUGCUGUAUACCUC,0.24
6,UAACAGGGGGCCACAGCAGAAGCGUUCACGUCGCAGCCCCUGACAGAUUCUGGUGAAUCUGCGAAUUCGGCAGUAUAUCUC,0.33
7,UAACAGGGGGCCACAGCAGAAGCGUUCACGUCGCAGCCCCUGACAGAUUCUGGUGAAUCUGCGAAUUCUGCCGUAUACCUC,1.08
8,UAACAGGGGGCCACAGCAGAAGCGUUCACGUCGCAGCCCCUGCCGGAUUCUGGUGAAUCAGCGAAUUCAGCUGUAUAUCUC,0.14
9,UAACAGGGGGCCACAGCAGAAGCGUUCACGUCGCAGCCCCUGCCGGAUUCUGGUGAAUCUGCGAAAUCUGCUGUAUAACUC,0.08
10,UAACAGGGGGCCACAGCAGAAGCGUUCACGUCGCAGCCCCUGCCGGAUUCUGGUGAAUCUGCGAAUUCAGCUGUAUAUCUC,0.27
11,UAACAGGGGGCCACAGCAGAAGCGUUCACGUCGCAGCCCCUGCCGGAUUCUGGUGAAUCUGCGAAUUCUGCGGUAUAUCUC,0.65
12,UAACAGGGGGCCACAGCAGAAGCGUUCACGUCGCAGCCCCUGCCUGAUUCUGGAGAAUCUGCGAAUUCUGCUGUGUAUCUC,0.17
13,UAACAGGGGGCCACAGCAGAAGCGUUCACGUCGCAGCCCCUGCCUGAUUCUGGUGAAUCCGCGAAUCCUGCCGUAUAUCUC,0.13
14,UAACAGGGGGCCACAGCAGAAGCGUUCACGUCGCAGCCCCUGCCUGAUUCUGGUGAAUCUGCGAAUUCUGCUGAAUAUCUC,0.64
15,UAACAGGGGGCCACAGCAGAAGCGUUCACGUCGCAGCCCCUGCCAGGUUCUGGUGAAACUGCGAAUUCUGCUGUAUAUCUC,0.15
16,UAACAGGGGGCCACAGCAGAAGCGUUCACGUCGCAGCCCCUGCCAGUUUCUGCUGAAUCUGCGAAUUCUGUUGUAUAUCCC,0.14
17,UAACAGGGGGCCACAGCAGAAGCGUUCACGUCGCAGCCCCUGCCAGAUUCUGGUGGUUCUGCGAAUUGUGCUGUAGAUCUC,0.07
